PubChem BioAssay AID504332 (National Center for Advancing Translational Sciences (NCATS), 2011)
Values joined by “and” are separate entries in the source; they are usually repeats but may differ in a detail not shown here. Identical values can stand only once. The campaign covered roughly 350,000 compounds. About 31,000 (8.9%) were called active. The inconclusive results got no clear call from the source; some entries with a clear call stand among them for comparison. The call rests on the fitted dose curve; in most records, active means well fitted inhibition curve with a large enough effect; inconclusive means small, poorly fitted or top-dose-only effect; inactive means no such curve, though single readings can be large or run the other way. Where the call is inconclusive, the potency comes from a doubtful curve fit.

molecular target: Histone-lysine N-methyltransferase EHMT2 (Homo sapiens) (UniProt Q96KQ7); test: qHTS Assay for Inhibitors of Histone Lysine Methyltransferase G9a; conditions: G9a H3K9 monomethylation, AlphaScreen, 2 h; activity, negative = inhibition: at 59 µM (top of the series) unless noted; further: nearly all actives have a fitted effect of over 75% in size
Summary of the method: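 Methyltransferase reactions run at room temperature for 2 h (20 nM enzyme, 500 nM biotin-H3K9 peptide, 20 uM SAM) after a 15 min compound preincubation; product detected by AlphaScreen beads and anti-H3K9me1 antibody.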
On the % scale 0 is the no-effect control and ±100 the full control effect; potency means the concentration at half of the fitted maximal effect; tags describe the fitted curve by direction and shape.

UniProt Q96KQ7, sequence (Q96KQ7 whole entry, looked up): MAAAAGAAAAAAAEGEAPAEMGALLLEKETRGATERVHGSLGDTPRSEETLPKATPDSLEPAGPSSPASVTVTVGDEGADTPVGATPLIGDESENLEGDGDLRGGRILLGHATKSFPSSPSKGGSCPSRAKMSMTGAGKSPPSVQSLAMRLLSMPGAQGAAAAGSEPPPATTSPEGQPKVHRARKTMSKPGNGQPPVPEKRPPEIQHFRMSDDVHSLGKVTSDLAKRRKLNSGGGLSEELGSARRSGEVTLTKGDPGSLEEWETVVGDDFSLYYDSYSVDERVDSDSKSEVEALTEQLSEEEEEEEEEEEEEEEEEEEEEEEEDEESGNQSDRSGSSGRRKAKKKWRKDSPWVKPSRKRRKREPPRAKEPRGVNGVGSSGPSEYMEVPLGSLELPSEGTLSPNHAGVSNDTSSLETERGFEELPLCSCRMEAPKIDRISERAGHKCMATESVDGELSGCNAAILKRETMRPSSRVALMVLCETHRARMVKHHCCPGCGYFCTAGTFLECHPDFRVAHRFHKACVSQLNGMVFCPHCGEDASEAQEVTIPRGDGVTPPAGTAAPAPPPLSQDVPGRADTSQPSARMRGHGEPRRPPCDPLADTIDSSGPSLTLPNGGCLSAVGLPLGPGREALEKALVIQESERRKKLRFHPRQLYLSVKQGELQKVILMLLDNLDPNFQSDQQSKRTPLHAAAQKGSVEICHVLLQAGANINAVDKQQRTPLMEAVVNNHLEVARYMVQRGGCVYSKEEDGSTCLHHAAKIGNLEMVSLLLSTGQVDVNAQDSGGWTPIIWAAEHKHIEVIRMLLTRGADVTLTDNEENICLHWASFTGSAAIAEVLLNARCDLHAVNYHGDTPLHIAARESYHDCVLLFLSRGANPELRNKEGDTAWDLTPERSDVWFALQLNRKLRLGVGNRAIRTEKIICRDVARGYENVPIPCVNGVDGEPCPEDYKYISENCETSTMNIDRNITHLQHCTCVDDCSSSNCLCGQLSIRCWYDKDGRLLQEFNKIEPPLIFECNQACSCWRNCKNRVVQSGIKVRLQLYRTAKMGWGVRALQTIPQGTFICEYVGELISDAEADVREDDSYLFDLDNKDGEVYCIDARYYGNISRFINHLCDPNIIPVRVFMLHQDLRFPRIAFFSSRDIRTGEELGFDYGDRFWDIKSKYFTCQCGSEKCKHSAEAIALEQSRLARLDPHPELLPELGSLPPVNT

| Compound | Potency | activity, negative = inhibition |
| --- | --- | --- |
| Brc1ccccc1C1CC(c2ccccc2)=Nc2ccccc2N1 (centres undefined) | inconclusive: 17.8 µM [inhibitor, single point] |  |
| CN1CCN(CCCNC(=O)c2cnn(-c3ccc(F)cc3)c2-n2cccc2)CC1 |  | inactive: -8.13% |
| Cc1cc(C)nc(NS(=O)(=O)c2ccc(NC(=O)C(C)Oc3ccccc3F)cc2)n1 (centres undefined) | inconclusive: 89.1 µM [inhibitor, partial curve, poor fit] |  |
| O=C(Cn1c(=O)n(Cc2ccco2)c(=O)c2oc3ccccc3c21)Nc1ccc(F)c(Cl)c1 |  | inactive: -5.23% |
| COc1ccc(N(CC(=O)N2CCc3ccccc3C2)S(=O)(=O)c2ccc(C)cc2)cc1Cl | inconclusive: 3.16 µM [inhibitor, partial curve, poor fit] |  |
| CC(C)Cn1c(=O)c2c(nc3n2CCCN3CCc2ccccc2)n(C)c1=O | inconclusive: 89.1 µM [inhibitor, single point] |  |
| Cc1cc(C)n(CC(O)COCc2ccccc2)n1 (centres undefined) |  | inactive: -20.3% [at 102 µM] |
| Cc1noc(C(C)C)c1C(=O)Nc1ccc(-c2nnc3n2CCCCC3)cc1 | inconclusive: 28.2 µM [inhibitor, single point] |  |
| Cc1cccc(COCC(CC(C)C)N2CCN(C(=O)c3ccc(C(C)(C)C)cc3)CCC2=O)c1 (centres undefined) | inconclusive: 89.1 µM [inhibitor, single point] |  |
| CCc1cc(-c2n[nH]c(C)c2-c2ccc3c(c2)OCCO3)c(O)cc1O | inconclusive: 14.1 µM [inhibitor, partial curve] |  |
| Cc1ccccc1-c1ccnc2[nH]n(-c3ccccc3)c(=O)c12 | inconclusive: 5.01 µM [inhibitor, single point] |  |
| OCC(O)CS (centres undefined) |  | inactive: 18.9% |
| Cc1ccc(CS(=O)(=O)CCC(=O)NCc2ccc(F)cc2)cc1 |  | inactive: 0.73% [at 102 µM] |
| CCOc1cc(C2C(C(=O)OC)=C(C)NC3=C2C(=O)c2ccccc23)ccc1OC (centres undefined) | inconclusive: 7.94 µM [inhibitor, full curve] |  |
| COC(=O)Cc1c(C)c2c(O)cc(C)cc2oc1=O | inconclusive: 10 µM [inhibitor, partial curve, poor fit] |  |
| COc1ccc(/C=N/NC(=O)c2cc(-c3ccc(C)cc3C)nc3ccccc23)cc1COC(C)=O |  | inactive: 2.51% [at 102 µM] |
| CCOC(=O)c1c(NC(=O)CSc2cn(CCNC(=O)c3cccc(C(F)(F)F)c3)c3ccccc23)sc2c1CCC2 |  | inactive: -9.5% |
| Cc1[nH]n(-c2ccccc2)c(=O)c1C(c1ccccc1[N+](=O)[O-])C(C#N)C#N (centres undefined) | active: 28.2 µM |  |
| Cc1ccc(C)c(CSc2nc3ccncc3n2CC(=O)Nc2ccc(C)c(C)c2)c1 | inconclusive: 7.08 µM [inhibitor, partial curve, poor fit] |  |
| CC(C)(C)C1CCC(=NNc2ccc(S(N)(=O)=O)cc2[N+](=O)[O-])CC1 (centres undefined) | active: 25.1 µM |  |
| CC(C)NC(=O)CC(c1ccccc1)c1cc(Br)ccc1O (centres undefined) | inconclusive: 100 µM [inhibitor, single point] |  |
| Cc1ccc(N2CC(C(=O)Nc3ccc(S(=O)(=O)N4CCOCC4)cc3)CC2=O)cc1Cl (centres undefined) |  | inactive: 6.78% [at 2.33 µM] |
| O=[N+]([O-])c1nn(-c2ccc3c(c2)OCCO3)n(O)c1=NCCC1=CCCCC1 | active: 20 µM |  |

| Compound | Potency | activity, negative = inhibition |
| --- | --- | --- |
| CCOc1ccc(N(CC(=O)NCc2ccccc2)C(=O)CCC(=O)Nc2nccs2)cc1 |  | inactive: 15.5% [at 102 µM] |
| O=[N+]([O-])c1ccc(S(=O)(=O)N/N=C/c2cccs2)cc1 | inconclusive: 39.8 µM [inhibitor, single point] |  |
| O=C1N/C(=C\c2ccc(O)cc2)C(O)=C1C=NCc1ccccc1 |  | inactive: -27.4% |
| Cc1ccc2oc(C(=O)N(Cc3ccc(N(C)C)cc3)CC3CCCO3)c(C)c2c1 (centres undefined) | active: 14.1 µM and active: 28.2 µM |  |
| CCN(CCCNC(=O)CC(C(=O)N1CCc2ccccc21)n1ccnc1)c1cccc(C)c1 (centres undefined) | inconclusive: 31.6 µM [inhibitor, partial curve, poor fit] |  |
| CSCCC1NC(=O)N(CC(=O)Nc2cc(C)on2)C1=O (centres undefined) | inconclusive: 31.6 µM [inhibitor, single point] |  |
| O=C(O)Cc1nc2nc3c(c(=O)n2[nH]1)CCCC3 | inconclusive: 39.8 µM [inhibitor, single point] |  |
| COc1cccc(/C=C2\CC(C)Cc3c2nc2ccccc2c3C(=O)O)c1OC (centres undefined) | active: 50.1 µM |  |
| Cc1ccc(-n2nc3c(N4CCC(C(=O)NCc5ccc(C)o5)CC4)nnc(C)c3c2C)cc1 | inconclusive: 25.1 µM [inhibitor, single point] |  |
| CCN(CC)CCN1C(=O)C(=O)/C(=C(/O)c2ccc3c(c2)CC(C)O3)C1c1ccc(OC)cc1 (centres undefined) | active: 50.1 µM |  |
| CC/C(=N\Nc1nncc2ccccc12)c1ccc(F)cc1 | active: 39.8 µM |  |
| COc1cccc(N2CCN(c3ccc4nnc(CCC(=O)N5CCN(C)CC5)n4n3)CC2)c1 | inconclusive: 31.6 µM [inhibitor, full curve, poor fit] |  |
| CCN(CC)S(=O)(=O)c1cccc(C(=O)NN2Cc3ccccc3C2=N)c1 | inconclusive: 2.24 µM [inhibitor, partial curve, poor fit] |  |
| CC(=O)NC(=S)Nc1ccc(NC(=O)COc2ccc(C(C)C)cc2)cc1 | inconclusive: 89.1 µM [inhibitor, single point] |  |
| O=C(Nc1ccc(N2CCN(C(=O)c3ccccc3)CC2)cc1)c1cc([N+](=O)[O-])ccc1N1CCOCC1 | inconclusive: 79.4 µM [inhibitor, single point] |  |
| C=CCOc1ccc(C2/C(=C(/O)c3ccc4c(c3)CC(C)O4)C(=O)C(=O)N2CCCN2CCOCC2)cc1 (centres undefined) | active: 44.7 µM |  |
| Cc1ccc(S(=O)(=O)N2C(=O)CCC2C(=O)Nn2cnnc2)cc1 (centres undefined) | inconclusive: 1.78 µM [inhibitor, partial curve, poor fit] |  |
| O=C1CSC2(C(=O)N(Cc3ccccc3F)c3ccccc32)N1c1cccc(C(F)(F)F)c1 (centres undefined) | inconclusive: 4.47 µM [inhibitor, full curve, poor fit] |  |
| Brc1ccc(C2CC(c3ccccc3)=Nc3ccccc3N2)cc1 (centres undefined) | active: 39.8 µM |  |
| Nc1nc(NCc2c(F)cccc2Cl)nn1-c1ccccc1 |  | inactive: -12.8% |
| CC(C)c1ccc(NC(=O)CSC2=Nc3ccccc3C3=NC(CC(=O)NCc4cccs4)C(=O)N23)cc1 (centres undefined) |  | inactive: -0.117% |
| Cc1cc(C)cc(NC(=O)C(OC(=O)Cn2cnc3c2c(=O)n(C)c(=O)n3C)c2ccccc2)c1 (centres undefined) | inconclusive: 56.2 µM [inhibitor, partial curve, poor fit] |  |
| CC(=O)Nc1ccc(S(=O)(=O)N2CCN=C2SCc2ccccc2C)cc1 |  | inactive: 24.9% [at 102 µM] |

| Compound | Potency | activity, negative = inhibition |
| --- | --- | --- |
| CCOC(=O)C1=C(C)S/C(=C\N(C)C)C1=O | inconclusive: 39.8 µM [inhibitor, single point] |  |
| Cc1ccc(NS(=O)(=O)c2ccc(-c3cnc(C4CC4)o3)cc2)cc1N(C)C | inconclusive: 31.6 µM [inhibitor, partial curve, poor fit] |  |
| COCC(=O)N1CCC2(CC1)CN(c1ccc(-c3ccccc3)cc1)C2 |  | inactive: -0.263% [at 12.7 µM] |
| COc1ccc(N(CC(=O)NCc2ccc(F)cc2)C(=O)Cn2nnc(-c3ccc(C)o3)n2)cc1OC |  | inactive: 6.79% [at 102 µM] |
| Cc1ccc(C(=O)NNC(=S)Nc2cccc3ccccc23)s1 | active: 35.5 µM |  |
| CCCC1=C(C(=O)OCC)C(/C=C/c2ccccc2)n2ncnc2N1 (centres undefined) | inconclusive: 89.1 µM [inhibitor, single point] |  |
| Cc1ccc(-n2c(Cc3cccn3C)nnc2SCC(=O)N2CCN(c3ccccc3)CC2)cc1 |  | inconclusive: -100% [inhibitor] |
| Cc1cc(=O)[nH]c(SCC(=O)Nc2cc(S(=O)(=O)N(C)C)ccc2Cl)n1 | inconclusive: 89.1 µM [inhibitor, partial curve, poor fit] |  |
| CC(=O)Nc1c2c(nn1-c1ccc(F)cc1)CSC2 |  | inactive: 11.9% [at 102 µM] |
| COc1ccc(C(CCN(Cc2ccc(OC)c(OC)c2)C(C)=O)c2ccccc2)cc1 (centres undefined) | inconclusive: 79.4 µM [inhibitor, single point] |  |
| CCCCC1(Br)C(=O)N(c2ccccc2)N(c2ccccc2)C1=O | inconclusive: 5.62 µM [inhibitor, single point] |  |
| Cc1[nH]c2ccccc2c1C(=O)C(=O)N1CCN(c2cccc(Cl)c2)CC1 | inconclusive: 28.2 µM [inhibitor, full curve] |  |
| COc1cccc(-n2sc3c(c2=S)-c2cc(OC)ccc2NC3(C)C)c1 | inconclusive: 28.2 µM [inhibitor, single point] |  |
| O=C(NC1CCCCC1)C(c1ccc(O)c(O)c1)N(C(=O)Cn1nnc2ccccc21)c1cccc(O)c1 (centres undefined) | inconclusive: 50.1 µM [inhibitor, partial curve] |  |
| CN(CC(=O)Nc1ccc(Cl)c(C(F)(F)F)c1)C(=O)C1(c2ccccc2)CC1 | inconclusive: 79.4 µM [inhibitor, partial curve] |  |
| CCn1c(C)nc2cc(C(=O)N/N=C/c3ccccc3)ccc21 |  | inactive: 9.24% [at 102 µM] |
| Nc1ccc(Oc2ccc3nc(-c4ccccc4)c(-c4ccc([N+](=O)[O-])cc4)nc3c2)cc1 | active: 31.6 µM |  |
| CC1S/C(=N\N=C\c2cccc([N+](=O)[O-])c2)N(C(C)(C)C)C1=O (centres undefined) |  | inconclusive: -52.3% [inhibitor] |
| O=C(Cc1ccccc1)NNC(=S)NC(=O)c1cccnc1 | active: 10 µM |  |
| O=C(CCSc1ccccc1)N1CCCC1 |  | inactive: 28.8% [at 102 µM] |
| O=C(COc1ccccc1)NC1CCSc2ccccc21 (centres undefined) | active: 6.31 µM |  |
| CCOC(=O)c1c(N)sc2c1CCC(CC)C2 (centres undefined) | active: 11.2 µM |  |
| CCOc1ccc(NC(=O)CN(c2cccc(C(F)(F)F)c2)S(C)(=O)=O)cc1 |  | inactive: 4.96% [at 102 µM] |
